# Hit rate of the full screen: of about 310,000 compounds, about 14,000 (4.5%) showed an effect of 50% or more. The effect is printed as a negative number. This is one part of the list.
# Molecular target: human ether-à-go-go-related gene (hERG) potassium channel (human, UniProt Q12809)
# Experiment: primary screen, population patch clamp on CHO cells stably expressing hERG
# 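Also: peak tail current of the secondary pulse compared with the same well before compound.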
# human ether-à-go-go-related gene (hERG) potassium channel, sequence (Q12809 whole entry, looked up): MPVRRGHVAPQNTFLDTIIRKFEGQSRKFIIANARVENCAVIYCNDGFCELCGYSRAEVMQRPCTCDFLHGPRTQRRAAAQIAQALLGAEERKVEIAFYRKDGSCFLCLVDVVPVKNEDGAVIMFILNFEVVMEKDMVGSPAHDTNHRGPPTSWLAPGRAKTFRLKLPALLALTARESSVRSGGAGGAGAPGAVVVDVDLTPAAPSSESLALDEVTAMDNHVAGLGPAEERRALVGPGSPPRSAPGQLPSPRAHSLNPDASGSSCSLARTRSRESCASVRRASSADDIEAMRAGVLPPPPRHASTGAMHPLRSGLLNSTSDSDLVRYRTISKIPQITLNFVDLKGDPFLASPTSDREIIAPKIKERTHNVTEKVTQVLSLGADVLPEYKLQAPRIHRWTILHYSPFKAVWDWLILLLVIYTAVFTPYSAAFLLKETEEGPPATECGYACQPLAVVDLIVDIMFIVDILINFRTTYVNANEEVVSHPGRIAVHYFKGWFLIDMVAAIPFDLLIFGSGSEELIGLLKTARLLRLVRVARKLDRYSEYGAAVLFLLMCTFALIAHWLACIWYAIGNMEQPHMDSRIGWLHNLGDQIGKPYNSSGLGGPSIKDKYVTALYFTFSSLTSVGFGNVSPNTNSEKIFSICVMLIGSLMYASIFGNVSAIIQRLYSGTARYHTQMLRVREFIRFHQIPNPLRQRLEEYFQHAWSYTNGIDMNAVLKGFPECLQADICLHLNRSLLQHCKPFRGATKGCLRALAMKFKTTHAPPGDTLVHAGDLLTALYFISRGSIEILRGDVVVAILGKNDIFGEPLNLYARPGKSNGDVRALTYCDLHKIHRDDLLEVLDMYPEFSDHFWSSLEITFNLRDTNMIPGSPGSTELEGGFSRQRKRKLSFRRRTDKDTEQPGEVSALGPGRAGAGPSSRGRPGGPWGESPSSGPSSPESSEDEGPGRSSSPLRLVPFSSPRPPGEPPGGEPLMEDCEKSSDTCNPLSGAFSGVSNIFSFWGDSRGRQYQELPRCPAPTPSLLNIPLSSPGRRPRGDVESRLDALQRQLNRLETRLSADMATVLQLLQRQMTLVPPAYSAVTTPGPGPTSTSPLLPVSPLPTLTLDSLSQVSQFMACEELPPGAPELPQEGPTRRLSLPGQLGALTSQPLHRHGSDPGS
row,SMILES,"hERG current change (%, negative = inhibition) at 10uM [%]"
1,O=C1CCC(C(=O)OCC(=O)c2ccccc2)N1 (stereo not shown),23.7
2,O=C(Nc1ccccc1)C1CCCN(C(=O)c2ccc(Cl)cc2)C1 (stereo not shown),-9.92
3,Cc1ccc(-n2nc(C)c(NS(=O)(=O)c3ccccc3)c2C)cc1C,-16.9
4,O=C(Cc1ccc(O)cc1)NCCNC(=S)NCc1ccccc1,13.2
5,Cc1cc(C)n2nc(SCC(=O)c3ccccc3)nc2n1,-27.5
6,CC(CC(=O)O)n1nnc2ccccc21 (stereo not shown),-1.15
7,Cc1ccsc1/C=N/Nc1ccc(F)cc1F,16.6
8,CC(=NCc1cccnc1)C1=C(O)c2ccccc2C1=O,-27.9
9,CC(C)CN(C(=O)COC(=O)CN1C(=O)c2ccccc2C1=O)c1c(N)n(Cc2ccccc2)c(=O)[nH]c1=O,15.3
10,Cc1ccccc1NC(=S)Nc1ccc2cn[nH]c2c1,-0.285
11,O=C(NC(C(=O)c1ccccc1)n1ccc(=O)[nH]c1=O)c1ccccc1 (stereo not shown),-7.32
12,CC(NC(=O)CCNC(=O)c1ccccc1Cl)C1CC2CCC1C2 (stereo not shown),-5.78
13,CCOc1ccc(CCNC(=O)Cn2ccc3ccccc3c2=O)cc1OCC,3.39
14,O=C(COC(=O)C1CCCCC1)Nc1ccc(S(=O)(=O)N2CCOCC2)cc1,-6.65
15,Cc1onc(-c2ccccc2)c1NC(=O)N(CCC#N)Cc1ccccc1,3.65
16,COc1cccc(CN2CCN(c3nc4nonc4nc3NC3CC3)CC2)c1,-9.54
17,CC(C)c1ccc(S(=O)(=O)N2CCCCC2)cc1,-27.4
18,CC(Nc1nc(-c2ccc(Cl)cc2)cs1)c1nc2cc(Cl)c(N3CCCCC3)cc2n1CCOCCO (stereo not shown),6.93
19,O=C(COC(=O)c1ccc2ccccc2n1)c1ccc(F)cc1,-14.8
20,CCC(=O)NC1=C(Nc2ccc(N)cc2)C(=O)c2ccccc2C1=O,24.4
21,COc1ccc(CNCC(O)(c2ccc(F)cc2)c2ccc(F)cc2)cc1,-67.3
22,O=C(NNC1CC(=O)N(c2ccc(Br)cc2)C1=O)c1cccs1 (stereo not shown),9.23

row,SMILES,"hERG current change (%, negative = inhibition) at 10uM [%]"
1,COc1ccc(C(=O)Nc2cccc(OC(=O)c3ccc(C)c(C)c3)c2)cc1,-7.1
2,O=C(Cc1ccc(-n2cccc2)cc1)NC1CCCCCC1,-12
3,COc1cccc(CC(=O)OCC(=O)NC(Cc2ccccc2)C(C)=O)c1 (stereo not shown),4.36
4,O=C(Nc1cccc(O)c1)c1cc(-c2ccc3c(c2)OCO3)on1,11.3
5,O=C(COC(=O)[C@@H]1CCCN1S(=O)(=O)c1ccc(Cl)cc1)NC1CCS(=O)(=O)C1 (stereo partly shown),-14.7
6,O=[N+]([O-])c1ccc(S(=O)(=O)NCC2COc3ccccc3O2)cc1 (stereo not shown),-30.5
7,Cc1ccc(-c2c[n+]3c(n2-c2ccccc2)SCC3)cc1.[Br-],-35.8
8,N#CC(=C1Nc2ccccc2N1)S(=O)(=O)c1ccccc1,14.4
9,CC(=O)c1sc(NC(=O)C2CCN(C(=O)c3ccccc3C)CC2)nc1-c1ccccc1,-8.99
10,O=C(CN(c1ccccc1F)S(=O)(=O)c1ccccc1)NC1CCCCCC1,2.92
11,COc1ccc(/C=C/C(=O)Nc2ccccc2C(=O)O)cc1OC,-1.9
12,O=C(Nc1cccc(NC(=O)c2ccco2)c1)c1ccccc1,-9.36
13,CCOC(=O)C1(CC2CCCCO2)CCN(C(=O)Nc2ccc(C(=O)OC)cc2)CC1 (stereo not shown),7.13
14,CCCn1c(N)c(N(CCOC)C(=O)c2ccc(N(C)S(=O)(=O)c3ccc(C)cc3)cc2)c(=O)[nH]c1=O,7.32
15,COc1ccc(CNc2nc3nc(-c4ccccc4)cc(=O)n3[nH]2)cc1OC,-13.1
16,CSc1ccc(Cl)c(C(=O)NCC(C)C)c1,14.7
17,CCN(c1ccccc1)c1cc(C)nc2nc(C)nn12,9.16
18,O=C1/C(=C/c2cccc([N+](=O)[O-])c2)CSc2ccc(Cl)cc21,9.89
19,COc1ccc(N2CC(C(=O)Nc3nnc(SCC(=O)NC4CCCC4)s3)CC2=O)cc1 (stereo not shown),16.2
20,O=C(O)c1ccc2c(c1)C1C=CCC1C(c1cc3c(cc1Br)OCO3)N2 (stereo not shown),21.2
21,COc1ccccc1CCCNC(=O)C1CCC(=O)N(Cc2ccccc2F)C1 (stereo not shown),-1.76
22,CCc1nnc(SCC(=O)NC2CCCCC2)nc1CC,-10.4

row,SMILES,"hERG current change (%, negative = inhibition) at 10uM [%]"
1,Cc1ccc(S(=O)(=O)NCCC(c2ccc(F)cc2)c2ccco2)cc1 (stereo not shown),10.8
2,COc1ccc(N2CCN(S(=O)(=O)CCNC(=O)C(C)Oc3ccccc3)CC2)cc1 (stereo not shown),-7.31
3,CCCCC(=O)Nc1cccc(NC(=O)c2cccnc2Cl)c1,7.23
4,Cc1cc(C)cc(NC(=O)C2C3C=CC4(O3)C2C(=O)N(CCCN(C)C)C4C(=O)NC2CCCC(C)C2C)c1 (stereo not shown),-1.63
5,O=C(CCSc1ccc(Cl)c(Cl)c1)NC12CC3CC(CC(C3)C1)C2,9.84
6,CCc1cc(C(=O)N(C)CC(=O)Nc2c(Cl)cccc2Cl)sc1C,-2.89
7,COC(=O)C1CCN(C(=O)CCC2CCCCC2)CC1,-1.82
8,COc1ccc(C2=CC(=O)CC(C)(C)C2)cc1OC,-0.218
9,O=C(O)c1ccc(N(Cc2ccccc2)S(=O)(=O)c2ccccc2)cc1,-1.2
10,COc1ccc2nc(N3CCCC(O)C3)c(C#N)cc2c1 (stereo not shown),-8.11
11,COc1ccc2c(c1)CC[C@@H]1[C@@H]2CC[C@]2(C)[C@@H](C(C)=O)C[C@@H]12,3.71
12,Cc1ccc(S(=O)(=O)N2CC=C(c3ccc(F)cc3)CC2)cc1,-19.7
13,Cc1ccc2c(CN3CCCCC3)cc(=O)oc2c1C,-1.49
14,O=C(O)CC(c1ccc(Cl)cc1)N1C(=O)CCC1=O (stereo not shown),-7.96
15,COc1ccc(OC)c(S(=O)(=O)Nc2cccc(C(C)=O)c2)c1,-6.8
16,Cc1ccc(S(=O)(=O)Cn2nnnc2CN2CCOCC2)cc1,5.95
17,Cc1cc(C#N)c(C)c(SCc2[nH]nc3c2C(c2ccccc2)C(C#N)=C(N)O3)n1 (stereo not shown),-0.0623
18,CCNc1nc(Oc2ccc(=O)[nH]n2)nc(SC)n1,8.57
19,NC(=O)NCc1ccc(C(=O)OCc2ccncc2)cc1,9.6
20,COc1cccc(N2CCN(c3nc(C)cc(C)c3C#N)CC2)c1,2.67
21,COc1ccc2oc(C(=O)OCC(=O)Nc3ccccc3)c(C)c2c1,-1.23
22,CN(C)/C=C1/C(=O)NC(=O)N(CCNc2ncc(C(F)(F)F)cc2Cl)C1=O,-12.4

row,SMILES,"hERG current change (%, negative = inhibition) at 10uM [%]"
1,COc1cccc(C2=CC(=O)CCC2)c1,5.78
2,Cc1ccc(NC(=O)C(C)OC(=O)Cn2[nH]c(=O)c3ccccc3c2=O)cc1 (stereo not shown),14.8
3,CC(C)=CCN1CCN(CC#Cc2ccccc2)CC1CCO (stereo not shown),-13
4,O=C(CCC(=O)N(CC(=O)NC1CCCCC1)Cc1cccs1)Nc1nccs1,4.6
5,Cn1cc(-c2ccc(Cl)cc2)cc(C#N)c1=O,2.64
6,O=C(Nc1ccc2c(c1)CCC2)c1cnc(Cl)c(Cl)c1,0.674
7,COc1cc(OC)c(OC)cc1CN1CCN(S(=O)(=O)c2ccc(NC(C)=O)cc2)CC1.O=C(O)C(=O)O,7.87
8,CN(Cc1c(C(=O)N/N=C/c2cccc(F)c2)nnn1-c1nonc1N)C1CCCCC1,19.2
9,O=[N+]([O-])c1cccc(CN2CCC(Cc3ccccc3)CC2)c1,-31.4
10,Cc1[nH]cnc1CSCCN.Cl,19.9
11,OC(CN=c1sc2ccccc2n1CC(O)COc1ccccc1)COc1ccccc1 (stereo not shown),-1.46
12,CCn1cc(C(=O)O)c(=O)c2cnc(N3CCN(C(=S)Nc4ccccc4C(F)(F)F)CC3)nc21,6.26
13,CCc1cccc(C)c1N=Cc1c(O)c2ccccc2oc1=O,8.06
14,CC(=O)Nc1ccc(-c2nnc(SCc3ccc(C)cc3)n2C)cc1,-13.1
15,O=C(CCNS(=O)(=O)c1ccccc1F)N1CCN(C(c2ccccc2)c2ccccc2)CC1,-13.4
16,O=C(NC1CCSc2ccccc21)c1cc(S(=O)(=O)N2CCOCC2)ccc1F (stereo not shown),-1.04
17,Cc1ccccc1N1CCN(C2CCCN(C(=O)CCn3cnnn3)C2)CC1 (stereo not shown),-3.95
18,CCOc1cc(/C=C2\NC(=O)NC2=O)cc([N+](=O)[O-])c1O,-5.87
19,O=S(=O)(c1ccc(NC(=S)NN=C(Cc2ccccc2)Cc2ccccc2)cc1)N1CCOCC1,24.6
20,Cc1ccnc(NS(=O)(=O)c2ccc(NC(=O)Cc3ccc(Cl)cc3)cc2)n1,14.3
21,COC(=O)c1ccc(S(=O)(=O)NCCSc2nnc3c4ccccc4n(C)c3n2)cc1,-8.59
22,CCN(CC)S(=O)(=O)c1ccc2c(c1)nc(CCC(=O)OCC(=O)Nc1c(F)cccc1F)n2C,-34.6

# — PMC4336329 (PLoS ONE, 2015)
